Assay results as given in PubChem BioAssay AID1963576 (National Center for Advancing Translational Sciences (NCATS), 2024).
Among all 46,000 compounds or so, about 60 (0.1%) were called active. Inconclusive means that the source gave no clear call. Such entries were picked first, then a sample of the others. Calls come from the whole dose curve; as a rule, active = well fitted inhibition curve with a large enough effect; inconclusive = small, poorly fitted or top-dose-only effect; inactive = no such curve, though single readings can be large or run the other way. No potency is given beside an inconclusive call; the fits are too rough.

Assay: Primary qHTS assay for Inhibitors of ovarian cancer metastasis using an organotypic tumor microenvironment (TME) model.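 For activity change, negative = inhibition: plate controls were DMSO wells for no effect and tomatine positive control wells for full effect.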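 For potency: count of GFP cancer cells still attached after washing and fixation.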 Note: nearly all actives have a fitted effect of over 65% in size.
Details: SKOV3ip1-GFP adhesion/invasion on 3D omental model, fluorescence; activity change, negative = inhibition: at 45.8 µM (top of the series); series mostly up to 45.8 µM
In short: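 Primary human omental fibroblast/mesothelial 3D culture pre-formed 48 h. SKOV3ip1-GFP cells added with compounds (0.36-46 umol/L), incubated 2 h RT/16 h 37 C, fixed; GFP cells quantified at 488/509 nm.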
Potency is the fitted concentration of half-maximal effect; tags give direction and shape of the fitted curve.

With `Cc1cc(O)c(C(c2ccccc2)N2CCCCC2)c(=O)n1Cc1ccco1` (configuration not stated) as the molecule, how does the Potency read?
The Potency was inconclusive [inhibitor, single point].

For `CCSc1nn(CC(=O)Nc2cccc(CC)c2)c(N)c1S(=O)(=O)c1ccccc1`, which “activity change, negative = inhibition” value is on record?
The value was inactive: -1.39%.

Which “outcome” value does the source give for `COc1cccc(NS(=O)(=O)c2ccc3c(c2)n(C)c(=O)n3C)c1` here?
The value was “inactive”.

Which “outcome” value does the source give for `Cc1oc(-c2cccc(Cl)c2)nc1CN1CCC(C(=O)NCCCN2CCN(c3ccc(F)cc3)CC2)CC1` here?
Its value is “inactive”.

For `Cc1ccc(C2=CC(c3ccccc3F)n3c(nc4ccccc43)N2)cc1C` (configuration not stated), which “activity change, negative = inhibition” value is on record?
The value was inactive: -5.45%.

With `Cc1ccc(NC(=O)Nc2cc(C(F)(F)F)ccc2F)cc1Nc1ccc2c(c1)NC(=O)C2=Cc1ccc[nH]1` as the molecule, how does the Potency read?
Its Potency is inconclusive [inhibitor, single point].

Which Potency does the source give for `COc1ccccc1CCNC(=O)c1ccc2c(c1)c(C)c(C)n2Cc1ccc(Cl)cc1` here?
The Potency was inconclusive [inhibitor, partial curve, poor fit].

For `CCCCOc1ccc(CN2C(=O)C(=O)c3cc(Br)cc(C)c32)cc1OC`, which Potency is on record?
Its Potency is inconclusive [inhibitor, single point].

For `COc1ccc(-c2noc(-c3ccc(N4CCN(C)CC4)c([N+](=O)[O-])c3)n2)cc1OC`, which Potency is on record?
The Potency was inconclusive [inhibitor, single point].

Which Potency does the source give for `COc1ccc(-c2cc(C)no2)cc1S(=O)(=O)NC(C)C` here?
The Potency was inconclusive [inhibitor, full curve, poor fit].

Which Potency does the source give for `COc1ccc(S(=O)(=O)NCCc2csc3nc(-c4ccc(OC)c(OC)c4)nn23)cc1C` here?
The Potency was inconclusive [inhibitor, single point].

With `CCc1ccccc1NC(=O)c1ccc2c(c1)CCN2S(C)(=O)=O` as the molecule, how does the Potency read?
The Potency was inconclusive [inhibitor, partial curve, poor fit].

With `Cc1cc2c(n1-c1ccc(C(=O)NCCc3ccccc3)cc1)CCC(C)C2` (configuration not stated) as the molecule, how does the Potency read?
The Potency was inconclusive [inhibitor, single point].

For `CCOc1ccc(-n2ccnc2SCC(=O)Nc2ccc3c(c2)OCO3)cc1`, which Potency is on record?
The Potency was inconclusive [inhibitor, partial curve, poor fit].

Which Potency does the source give for `Cc1ccc(NC(=O)c2c(C)oc3ccc(O)c(CN(C)Cc4ccccc4)c23)c(C)c1` here?
The Potency was inconclusive [inhibitor, single point].

Which Potency does the source give for `O=S(=O)(c1ccc(Br)cc1)c1nnn2c1nc(NCCc1ccccc1)c1sccc12` here?
The Potency was inconclusive [inhibitor, single point].

For `COC(=O)c1nc2n(n1)C(c1cc(OC)ccc1OC)C=C(c1ccc(Br)cc1)N2` (configuration not stated), which Potency is on record?
Its Potency is inconclusive [inhibitor, partial curve, poor fit].

For `Cc1ccc(-n2ncc(C(=O)NCCN3CCCC3)c2C2CCN(C(=O)OC(C)(C)C)CC2)cc1C`, which Potency is on record?
The Potency was inconclusive [inhibitor, single point].

Which “activity change, negative = inhibition” value does the source give for `COc1cccc(C(=O)c2c(N)c(-c3nc(-c4ccccc4)cs3)c3ccccn23)c1` here?
Its value is inactive: -8.69%.

Which Potency does the source give for `CC1=C(c2ccc(Cl)cc2)S(=O)(=O)NC1=NCCCN1CCN(c2cc(C)ccc2C)CC1` here?
The Potency was inconclusive [inhibitor, single point].

Which Potency does the source give for `CCCCN(CC)CCCNC(=O)CS(=O)(=O)Cc1nc(-c2ccc(C)cc2)oc1C` here?
Its Potency is inconclusive [inhibitor, single point].

With `Cc1ccc(CCNS(=O)(=O)c2cc(-c3cc(C)no3)ccc2C)cc1` as the molecule, how does the Potency read?
The Potency was inconclusive [inhibitor, partial curve, poor fit].

Which Potency does the source give for `CN(Cc1ccccc1)C(=O)c1cn(C)c2ccc(S(=O)(=O)N3CCCCC3)cc2c1=O` here?
The Potency was inconclusive [inhibitor, single point].

For `CCOc1ccc(C(=O)/C=C/c2cn(CC(O)CN3CCCCCC3)c3ccccc23)cc1` (configuration not stated), which Potency is on record?
The Potency was inconclusive [inhibitor, single point].

Which “activity change, negative = inhibition” value does the source give for `CCC1(C)CC(=O)c2c(ccc3oc(C(=O)NCc4ccccc4)c(C)c23)O1` (configuration not stated) here?
The value was inactive: -7.34%.

Which Potency does the source give for `O=C(Nc1ccc(C(=O)N2CCN(c3cccc(Cl)c3)CC2)cc1)c1nsc2ccccc12` here?
The Potency was inconclusive [inhibitor, single point].

Which Potency does the source give for `CCc1nnc(NC(=O)c2nc(S(=O)(=O)Cc3ccc(C)cc3)ncc2Cl)s1` here?
The Potency was inconclusive [inhibitor, single point].

Which Potency does the source give for `CCc1ccc(C(=O)c2cn(CC(=O)Nc3cccc(OC)c3)c3ccc(OC)cc3c2=O)cc1` here?
Its Potency is inconclusive [inhibitor, single point].

Which “outcome” value does the source give for `COc1cc(OC)c(OC)cc1/C=C/c1nc2cc3ccccc3cc2c(=O)n1-c1ccc(F)cc1F` here?
Its value is “inactive”.

Which “activity change, negative = inhibition” value does the source give for `Cc1ccc(-n2c(SCc3cccc(F)c3)nc3[nH]ncc3c2=O)cc1C` here?
The value was inactive: 3.9%.

With `CCn1c(=O)sc2cc(NS(=O)(=O)c3ccc(F)c(C)c3)ccc21` as the molecule, how does the “outcome” value read?
The value was “inactive”.

Which Potency does the source give for `O=C(CCS(=O)(=O)c1cc(Br)cc2c1N(C(=O)C1CC1)CC2)NCc1ccc(Cl)cc1` here?
The Potency was inconclusive [inhibitor, partial curve, poor fit].

Which Potency does the source give for `CCOc1ccc(-c2nonc2NC(=O)c2oc3ccc(F)cc3c2C)cc1` here?
The Potency was inconclusive [inhibitor, full curve].

Which “activity change, negative = inhibition” value does the source give for `CC(C)(C)c1ccc(Cn2c(Cc3ccccc3)nc3ccccc32)cc1` here?
Its value is inactive: -1.41%.

With `CC(=O)Nc1ccc(Nc2ncnc3c2c(-c2ccccc2)cn3-c2ccccc2)cc1` as the molecule, how does the Potency read?
Its Potency is inconclusive [inhibitor, single point].

For `CCc1ccc(-n2c(=O)c3c4c(sc3n(Cc3ccc(F)cc3)c2=O)CCCC4)cc1`, which Potency is on record?
Its Potency is inconclusive [inhibitor, single point].

Which “activity change, negative = inhibition” value does the source give for `COc1ccccc1NC(=O)C1CCCN(c2nnc(C)c3c(C)n(-c4ccccc4)nc23)C1` (configuration not stated) here?
Its value is inactive: 1.73%.

Which Potency does the source give for `CCOc1ccccc1NC(=O)CSc1nc2ccccc2c2nc(CCn3cncc3C)nn12` here?
The Potency was inconclusive [inhibitor, single point].

For `CCc1ccc(NC(=O)CC2C(=O)N(c3cccc(C)c3)C(=O)N2Cc2cccs2)cc1` (configuration not stated), which Potency is on record?
Its Potency is inconclusive [inhibitor, partial curve].

With `COc1cccc(CNC(=O)c2c(C)nn(-c3cccc(C)c3)c2-n2cccc2)c1` as the molecule, how does the “activity change, negative = inhibition” value read?
Its value is inactive: -14%.

For `Cc1ccc(Nc2c3c(nc4nncn24)CCC3)cc1`, which “activity change, negative = inhibition” value is on record?
Its value is inactive: 6.59%.

With `COc1cc(NC(=O)Cn2c(SCc3ccc(F)cc3)nc3cccnc32)cc(OC)c1` as the molecule, how does the Potency read?
The Potency was inconclusive [inhibitor, single point].

With `COc1cc2nc(N3CCN(C(=O)c4ccco4)CC3)nc(N)c2cc1OC` as the molecule, how does the “activity change, negative = inhibition” value read?
Its value is inactive: -25.6%.

Which Potency does the source give for `Cc1ccc(S(=O)(=O)N2CCN(C(=O)c3cc(-c4ccc(Br)cc4)n[nH]3)CC2)c(C)c1` here?
Its Potency is inconclusive [inhibitor, single point].

For `O=C(CCc1nc(CN2CCN(S(=O)(=O)c3ccc(Br)cc3)CC2)no1)N1CCCCC1`, which Potency is on record?
The Potency was inconclusive [inhibitor, single point].

Which “activity change, negative = inhibition” value does the source give for `OCCN(CCO)c1ncnc2c1cnn2-c1ccc(F)cc1` here?
Its value is inactive: 3.08%.

Which Potency does the source give for `COc1ccc(NC(=O)CC2NCCNC2=O)c(OC)c1` (configuration not stated) here?
The Potency was inconclusive [inhibitor, single point].

Which “activity change, negative = inhibition” value does the source give for `Cc1cccc(-n2nc(C)c(C(=O)Nc3cc(C)ccc3C)c2-n2cccc2)c1` here?
Its value is inactive: 19.2%.

Which Potency does the source give for `CCOc1ccc(N(Cc2ccccc2)C(=O)c2nc(S(C)(=O)=O)ncc2Cl)cc1` here?
The Potency was inconclusive [inhibitor, full curve, poor fit].

Which Potency does the source give for `Cc1ccc(SCc2nc(-c3ccc(C(=O)NCCc4ccc(Cl)cc4)cc3)oc2C)cc1` here?
Its Potency is inconclusive [inhibitor, single point].

Which Potency does the source give for `Cc1c(Cl)cccc1-c1ccc(C(=O)Nc2ccc3oc(-c4cccnc4)nc3c2)o1` here?
Its Potency is inconclusive [inhibitor, single point].

Which “activity change, negative = inhibition” value does the source give for `CCc1ccc(NC(=O)C2CCN(c3ccc(Sc4ccc(C)cc4)nn3)CC2)cc1` here?
Its value is inactive: -2.46%.

Which Potency does the source give for `COc1cc(CNCCSc2nnnn2C)ccc1OCc1ccccc1` here?
The Potency was inconclusive [inhibitor, single point].

Which Potency does the source give for `CCOC(=O)C1=C(CN2CCN(c3ccc(Cl)cc3)CC2)NC(=O)NC1c1ccc(F)cc1` (configuration not stated) here?
Its Potency is inconclusive [inhibitor, single point].

For `COc1ccc(-n2nc3c(N4CCCC(C(=O)NCc5ccccc5C)C4)nnc(C)c3c2C)cc1` (configuration not stated), which Potency is on record?
Its Potency is inconclusive [inhibitor, partial curve, poor fit].

For `CCOC(=O)N1CCc2c(sc(NCc3ccc(N(C)C)cc3)c2C(=O)Nc2ccccc2OCC)C1`, which Potency is on record?
Its Potency is inconclusive [inhibitor, single point].

With `CCc1ccc(NC(=O)c2sc3nc(-c4ccccc4)cn3c2C)cc1` as the molecule, how does the Potency read?
The Potency was inconclusive [inhibitor, single point].

For `COc1ccc(N2CCN(C(=O)Nc3ccc(Cl)cc3)CC2)cc1`, which Potency is on record?
Its Potency is inconclusive [inhibitor, single point].

For `CCOc1ccc(-c2n[nH]c3c2C(c2cccs2)N(c2ccc(Br)cc2)C3=O)cc1` (configuration not stated), which Potency is on record?
The Potency was inconclusive [inhibitor, single point].

With `COc1ccccc1NC(=O)CSc1ncc(CO)n1Cc1ccc(F)cc1` as the molecule, how does the Potency read?
The Potency was inconclusive [inhibitor, single point].

For `C#CCOc1c(Br)cc(C2C(C(=O)OC)=C(C)NC3=C2C(=O)c2ccccc23)cc1OCC` (configuration not stated), which Potency is on record?
The Potency was inconclusive [inhibitor, single point].

With `COc1ccc(NC(=O)C(=O)Nc2ccc3nc4n(c(=O)c3c2)CCCCC4)c(OC)c1` as the molecule, how does the Potency read?
Its Potency is inconclusive [inhibitor, single point].
